Substitutions are numbered along the chain they refer to. Each block holds one molecule with its values, some of them ahead of it.
Legend:
[1] = CD analysis, variable temperature measurement (melting temperature); format: physicochemical; details: CD at 221 nm, 20 to 90° C., 0.5 mg/ml in PBS, dimer format
Experimental: The purified Z variants in dimer format were thawed and diluted to 0.5 mg/ml in PBS. For each diluted Z variant, a CD spectrum at 250-195 nm was obtained at 20° C. In addition, a variable temperature measurement (VTM) was performed to determine the melting temperature (Tm). In the VTM, the absorbance was measured at 221 nm while the temperature was raised from 20 to 90° C., with a temperature slope of 5° C./min. The CD measurements were performed on a Jasco J-810 spectropolarimeter (Jasco Scandinavia AB) using a cell with an optical path-length of 1 mm.

human CAIX = target: T1, human CAIX (Homo sapiens, UniProt Q16790); assay: Biacore binding analysis of dimeric Z variants; details: 1 μM; for binding to human CAIX (Biacore sensorgram): over immobilized human CAIX (590 RU)
T1 construct: purchased R&D Systems 2188-CA
Experimental: The interactions of five NEM treated His6-tagged dimeric CAIX-binding Z variants with human CAIX were analyzed in a Biacore 2000 instrument (GE Healthcare). Human CAIX was immobilized in a flow cell on the carboxylated dextran layer of a CM5 chip surface (GE Healthcare). The immobilization was performed using amine coupling chemistry according to the manufacturer's protocol. One flow cell surface on the chip was activated and deactivated for use as blank during analyte injections. The analytes, i.e. dimeric Z variants diluted in HBS-EP running buffer (GE Healthcare) to a final concentration of 1 μM, were injected at a flow-rate of 10 μl/min for 5 minutes. After 5 minutes of dissociation, the surfaces were regenerated with one injection of 10 mM HCl. The results were analyzed in BiaEvaluation software (GE Healthcare). Curves of the blank surface were subtracted from the curves of the ligand surface.

CAIX on LS174T cells = target: T2, CAIX on LS174T cells (Homo sapiens, UniProt Q16790); assay: Immunofluorescence staining of LS174T cells, flow cytometry and fluorescence microscopy; format: cell-based; details: for flow cytometry analysis, shift in mean fluorescence intensity (MFI): 10 μg/ml, His6-(Z#####)2-Cys-NEM form
T2 construct: Colorectal carcinoma cells LS174T, expressing CAIX on their surface; endogenous in cells; host or cells: LS174T colorectal carcinoma cells
Experimental: Colorectal carcinoma cells LS174T, expressing CAIX on their surface, were cultured in EMEM (Lonza) supplemented with 10% fetal calf serum (FCS), 1% glutamine, 1% non-essential amino acids, 1% sodium pyruvate and 1% Penicillin-Streptomycin (PEST). On the day of assay, LS174T cells were trypsinated, counted and 0.1-0.2×10^6 cells were added to 5 ml falcon tubes. The cells were pelleted by centrifugation at 1200 rpm and supernatant removed. The cells were stained with different purified Z variants in His6-(Z#####)2-Cys-NEM form. For screening, 100 μl of the different binders diluted to 10 μg/ml in PBS supplemented with 2% FCS (PBS 2% FCS) was added and cells were incubated for two hours at 4° C. PBS was used as background control and an unrelated Z variant (Z03638 (SEQ ID NO:356)) was used as negative control. The cells were washed once by filling up the tube with PBS and pelleting the cells by centrifugation. The pelleted cells were resuspended in 100 μl of goat anti-Z variant Ig (cat. no. 20.1000.01.0005; Affibody AB, Sweden), 5 μg/ml and incubated for one hour at 4° C. The goat anti-CAIX specific antibody MAB2188 (R&D systems) was used as a positive control at a concentration of 5 μg/ml. Cells were subsequently washed in PBS as described and resuspended in 100 μl of Alexa488-labeled anti-goat antibody (Invitrogen) at a concentration of 10 μg/ml. After 45 minutes of incubation at 4° C. cells were washed in PBS, resuspended in 300 μl of PBS and subjected to flow cytometry analysis using a FACSCantoll (BD Biosciences).
After the flow cytometry analysis, cells were added to glass slides and fixed in 2% formaldehyde in PBS for 15 minutes at RT. After washing carefully in PBS, the slides were dried and mounted with anti-fading solution (Vectashield, Vector laboratories). The staining was analyzed with a Leica DM-LA UV microscope (Leica Microsystems).

[2] = target: T3, CAIX-expressing SK-RC-52 cells (Homo sapiens, UniProt Q16790); assay: […] binding analysis on living cells; format: cell-based; details: living SK-RC-52 cells, 4° C.; for ka1 / kd1: first binding event; for ka2 / kd2: second binding event
T3 construct: The CAIX-expressing renal clear cell carcinoma cell line SK-RC-52; endogenous in cells; host or cells: SK-RC-52 renal clear cell carcinoma cells (provided by Active Biotech, Sweden)
Experimental: The CAIX-expressing renal clear cell carcinoma cell line SK-RC-52 was seeded on a local area of a cell culture dish (Nunclon™, Size 100620, NUNC NS, Roskilde, Denmark). The binding of ^99mTc-labeled Z variants to living cells was monitored in real-time at 4° C. using a […] Yellow (Ridgeview Instruments, Sweden) and established methods (Björkelund et al Appl Radiat Isot. 68:2372-6, 2010). […] The kinetic parameters were determined using the […] software.

SK-RC-52 cells = assay: Cellular processing (internalization) by SK-RC-52 cells; format: cell-based; details: 37° C.
Experimental: To evaluate the cellular processing, SK-RC-52 cells were incubated with the radiolabeled Z variants at 37° C. and 5% CO2. At designated time points (1, 2, 4, 8 and 24 h), a set of three dishes was removed from the incubator, the media was collected and cells were washed with ice cold serum-free medium. Cells were then treated with 0.5 ml of 0.2 M glycine buffer, pH 2, containing 4 M urea, for 5 min on ice. The acidic solution was collected and cells were washed with 0.5 ml glycine buffer. The acidic fractions were pooled. The cells were then incubated with 0.5 ml 1 M NaOH at 37° C. for at least 20 min. The cell debris was collected and the dishes were additionally washed with 0.5 ml of NaOH solution. The alkaline fractions were pooled. The radioactivity in the acidic solution was considered as membrane bound, and in the alkaline fractions as internalized.

SK-RC-52 xenografts = tested on: SK-RC-52 xenografts; parameters: species or system NMRI nu/nu mice; details: mouse, in vivo
Experimental: Biodistribution studies were performed in female NMRI nu/nu mice. Two weeks before the study, 10×10^6 cells from renal clear cell carcinoma (SK-RC-52 cell line) were implanted in the right hind legs of NMRI nu/nu mice. Average tumor weight was 0.30±0.14 g at the time of experiment, and the average animal weight was 17.1±1.3 g. In order to determine the optimal injection dose, three groups of mice (n=4) were injected intravenously (tail vein) with three different doses (0.3 μg, 1 μg, and 5 μg, respectively) of ^99mTc-(HE)3-Z09781 in 100 μl PBS and sacrificed at 4 h post injection. Another three groups of mice (n=4) were injected with 1 μg to follow the clearance profile of ^99mTc-(HE)3-Z09781 at 1, 4 and 8 h post injection. To check the specificity of xenograft targeting of ^99mTc-(HE)3-Z09781, a group of mice (n=4) was subcutaneously pre-injected with 500 μg of unlabeled (His)6-Z06936 (parent Z variant to (HE)3-Z09781) and sacrificed at 4 h post injection. Blood, lung, liver, spleen, stomach, colon, duodenum, kidney, salivary glands, muscle, bone, intestines, tumor, and the remaining carcass were collected. Organs and tissue samples were weighed, and their radioactivity was measured. The tissue uptake values were calculated as percent of injected dose per gram tissue (% ID/g) except for the intestine and the carcass, which was calculated as % ID per whole sample.

B5: ^99mTc-(HE)3-Z09781: (HE)3-Z09781 radiolabeled with [99mTc(CO)3]+ (conjugate)
chain: HEHEHEAEAKYAKENLFAGWEIDDLPNLTEDQRNAFIYKLWDDPSQSSELLSEAKKLNDSQAPKVD
ka1 [2]: 7400 M⁻¹ s⁻¹
kd1 [2]: 1e-05 s⁻¹
ka2 [2]: 1.3 × 10^4 1/MS
kd2 [2]: 0.0017 s⁻¹
Fraction internalized radioactivity after 24 h (SK-RC-52 cells): 17%
blood clearance (SK-RC-52 xenografts): rapid blood clearance
decrease of blood-associated radioactivity (SK-RC-52 xenografts): about 4 times
total tumor uptake (SK-RC-52 xenografts): appreciably higher
tumor uptake of radioactivity (SK-RC-52 xenografts): remained constant up to 8 h
tumor-to-blood and tumor-to-organ (except tumor-to-colon) ratios (SK-RC-52 xenografts): the highest at 4 h

B6: ^99mTc-(HE)3-Z09784: (HE)3-Z09784 radiolabeled with [99mTc(CO)3]+ (conjugate)
chain: B5 chain with N15W, L16W, F17W, W20I, D23A, E30Q, D31Q, N34D
ka1 [2]: 12000 M⁻¹ s⁻¹
kd1 [2]: 0.00011 s⁻¹
ka2 [2]: 3.4 × 10^4 1/MS
kd2 [2]: 0.0025 s⁻¹
Fraction internalized radioactivity after 24 h (SK-RC-52 cells): 43%

B7: ^99mTc-(HE)3-Z09782: (HE)3-Z09782 radiolabeled with [99mTc(CO)3]+ (conjugate)
chain: B5 chain with D23S, E30D, D31Y
ka1 [2]: 3300 M⁻¹ s⁻¹
kd1 [2]: 1.9e-05 s⁻¹
Fraction internalized radioactivity after 24 h (SK-RC-52 cells): 25%

B8: ^99mTc-(HE)3-Z09783: (HE)3-Z09783 radiolabeled with [99mTc(CO)3]+ (conjugate)
chain: B5 chain with L16I, E30D, D31E
ka1 [2]: 5900 M⁻¹ s⁻¹
kd1 [2]: 2.7e-05 s⁻¹
ka2 [2]: 3.8 × 10^3 1/MS
kd2 [2]: 0.00023 s⁻¹
Fraction internalized radioactivity after 24 h (SK-RC-52 cells): 25%

B9: His6-(Z04187)2-Cys-NEM: CAIX binding Z variant Z04187 (SEQ ID NO:350) from primary selection, tested in dimer format (protein)
chain: MGSSHHHHHHLQVDAKYAKENLWAGWEIDDLPNLTHSQRNAFIYKLWDDPSQSSELLAEAKKLNDAQAPKVDAKYAKENLWAGWEIDDLPNLTHSQRNAFIYKLWDDPSQSSELLAEAKKLNDAQAPKVDC
Tm [1]: 51 °C
binding to human CAIX (Biacore sensorgram) (human CAIX): showed binding to CAIX
membrane staining by fluorescence microscopy (CAIX on LS174T cells): membrane staining
flow cytometry analysis, shift in mean fluorescence intensity (MFI) (CAIX on LS174T cells): positive

Second part, led by results:

binding to human CAIX (Biacore sensorgram) (human CAIX): showed binding to CAIX
membrane staining by fluorescence microscopy (CAIX on LS174T cells): membrane staining
flow cytometry analysis, shift in mean fluorescence intensity (MFI) (CAIX on LS174T cells): positive
B1: His6-(Z04421)2-Cys-NEM: CAIX binding Z variant Z04421 (SEQ ID NO:354) from primary selection, tested in dimer format (protein)
chain: MGSSHHHHHHLQVDAKYAKEDRYAWTEIHKLPNLTVRQQNAFIYKLWDDPSQSSELLAEAKKLNDAQAPKVDAKYAKEDRYAWTEIHKLPNLTVRQQNAFIYKLWDDPSQSSELLAEAKKLNDAQAPKVDC
Tm [1]: 51 °C

dissociation curve to human CAIX (human CAIX; 5 min dissociation): slowest dissociation curve
binding to human CAIX (Biacore sensorgram) (human CAIX): showed binding to CAIX
flow cytometry analysis, shift in mean fluorescence intensity (MFI) (CAIX on LS174T cells): positive
B2: His6-(Z04196)2-Cys-NEM: CAIX binding Z variant Z04196 (SEQ ID NO:352) from primary selection, tested in dimer format (protein)
chain: MGSSHHHHHHLQVDAKYAKEWKFASIEIADLPNLTQHQKDAFIFKLWDDPSQSSELLAEAKKLNDAQAPKVDAKYAKEWKFASIEIADLPNLTQHQKDAFIFKLWDDPSQSSELLAEAKKLNDAQAPKVDC
Tm [1]: 61 °C

binding to human CAIX (Biacore sensorgram) (human CAIX): showed binding to CAIX
membrane staining by fluorescence microscopy (CAIX on LS174T cells): membrane staining
flow cytometry analysis, shift in mean fluorescence intensity (MFI) (CAIX on LS174T cells): positive
B3: His6-(Z04208)2-Cys-NEM: CAIX binding Z variant Z04208 (SEQ ID NO:353) from primary selection, tested in dimer format (protein)
chain: MGSSHHHHHHLQVDAKYAKEHEWAGVEIQSLPNLTTQQKHAFIYKLWDDPSQSSELLAEAKKLNDAQAPKVDAKYAKEHEWAGVEIQSLPNLTTQQKHAFIYKLWDDPSQSSELLAEAKKLNDAQAPKVDC
Tm [1]: 62 °C

binding to human CAIX (Biacore sensorgram) (human CAIX): showed binding to CAIX
flow cytometry analysis, shift in mean fluorescence intensity (MFI) (CAIX on LS174T cells): positive
B4: His6-(Z04191)2-Cys-NEM: CAIX binding Z variant Z04191 (SEQ ID NO:351) from primary selection, tested in dimer format (protein)
chain: MGSSHHHHHHLQVDAKYAKEDVNAWQEIIKLPNLTIFQRDAFIYKLWDDPSQSSELLAEAKKLNDAQAPKVDAKYAKEDVNAWQEIIKLPNLTIFQRDAFIYKLWDDPSQSSELLAEAKKLNDAQAPKVDC
Tm [1]: 60 °C

From patent US9957330B2, “Polypeptides” (AFFIBODY AB, priority 2012, dated 2018)
